Results published in US20220389066A1, “POLYPEPTIDES” (Affibody AB, priority 2019, published 2022).

What was measured:
SP100 nuclear antigen = target: T1, SP100 nuclear antigen (Homo sapiens, UniProt P23497); assay: SPR binding specificity study, SP100; details: analyte SP100 nuclear antigen; captured on HSA
T1 construct: purchased Biorbyt orb169341
T1 sequence (P23497 1-879): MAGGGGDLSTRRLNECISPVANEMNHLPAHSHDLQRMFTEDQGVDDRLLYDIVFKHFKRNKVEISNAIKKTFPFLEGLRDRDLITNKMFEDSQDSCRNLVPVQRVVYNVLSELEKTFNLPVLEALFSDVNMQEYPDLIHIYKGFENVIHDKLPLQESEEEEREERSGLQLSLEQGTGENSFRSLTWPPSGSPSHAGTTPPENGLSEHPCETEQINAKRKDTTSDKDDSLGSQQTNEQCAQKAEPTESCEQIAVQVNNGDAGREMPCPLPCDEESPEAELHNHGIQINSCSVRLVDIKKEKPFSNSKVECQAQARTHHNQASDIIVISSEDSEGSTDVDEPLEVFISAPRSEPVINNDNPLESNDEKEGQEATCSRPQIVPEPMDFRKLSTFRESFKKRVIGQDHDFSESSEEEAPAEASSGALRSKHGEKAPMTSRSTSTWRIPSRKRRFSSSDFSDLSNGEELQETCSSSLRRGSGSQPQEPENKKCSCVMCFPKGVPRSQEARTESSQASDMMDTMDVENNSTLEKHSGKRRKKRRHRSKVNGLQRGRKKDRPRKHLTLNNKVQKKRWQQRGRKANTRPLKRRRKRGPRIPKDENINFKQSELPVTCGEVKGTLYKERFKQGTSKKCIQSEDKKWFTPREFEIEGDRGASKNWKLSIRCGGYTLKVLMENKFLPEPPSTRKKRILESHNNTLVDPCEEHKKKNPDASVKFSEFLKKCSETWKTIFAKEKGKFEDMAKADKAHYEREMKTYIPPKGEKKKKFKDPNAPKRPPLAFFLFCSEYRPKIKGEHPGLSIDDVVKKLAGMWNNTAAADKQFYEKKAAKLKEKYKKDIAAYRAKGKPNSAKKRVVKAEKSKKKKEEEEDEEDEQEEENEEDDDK
Method: (§1) HSA (Albucult®, Novozyme) was diluted to 10 μg/ml in acetate, pH 4.0, and immobilized onto a CM5 sensor chip using a Biacore 2000 instrument. Immobilization was performed by amine chemistry, using amine coupling kit, according to the manufacturer's instructions. The first surface of each chip was activated and deactivated for use as a reference cell (blank surface) during analyte injections. HBS-EP was used as running buffer, supplemented with 1.5 mM DTT when analyzing the binding to HMGB1(red). ZZA4263 was injected at a concentration of 100 nM for 4 minutes over the HSA and the reference sensor chip surfaces at a constant flow rate of 30 μl/min. This was followed by 4 minutes' injection of 0, 8.3, 25, 75, 225 and 675 nM of HMGB1(red), HMGB1(disulfide), HMGB2 (Biorbyt, cat. no. orb180287), HMGB3 (Biorbyt, cat. no. orb180288), SP100 (Biorbyt, cat. no. orb169341), TNF (R&D Systems, cat. no. 210-TA), IL-6 (R&D Systems, cat. no. 206-IL) and IL-1β (R&D Systems, cat. no. 201-LB/CF), respectively. The proteins were allowed to dissociate for 20 minutes before the chip surfaces were regenerated by two 10 second pulses using 10 mM HCl. The reference surface and the buffer sample were subtracted from all curves. The buffer sample was subtracted to adjust for the dissociation of ZZA4263 from HSA. All curves were fitted to a kinetic 1:1 Langmuir model in the BIA Evaluation software to estimate the binding properties (ka, kd and KD).

HMGB1(disulfide) = target: T2, HMGB1(disulfide) (Rattus norvegicus, UniProt P63159); assay: Attana A200 biosensor binding analysis, HMGB1(disulfide); details: relevant kd (the most represented in %); non-reducing; captured on HSA; 1:1 or 1:2 model
T2 construct: purchased HMGBiotech Srl, Milano, Italy
T2 sequence (P63159 1-215): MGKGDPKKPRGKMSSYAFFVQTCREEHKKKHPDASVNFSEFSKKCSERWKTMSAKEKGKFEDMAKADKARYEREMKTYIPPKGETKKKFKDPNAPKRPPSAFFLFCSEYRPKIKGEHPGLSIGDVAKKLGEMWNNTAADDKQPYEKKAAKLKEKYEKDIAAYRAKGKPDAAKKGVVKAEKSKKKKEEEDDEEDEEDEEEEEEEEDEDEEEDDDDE
Method: Binding analysis: The Attana A200® biosensor was used to characterize interactions between the dimeric polypeptides (SEQ ID NO:38-48) and HMGB1(red) under reducing conditions and/or HMGB1(disulfide) under non-reducing conditions. The monomeric ZA3812 (SEQ ID NO:35) was included for comparison. The experiment was performed as a capture assay, in which HSA was immobilized on Attana's sensor chip Low-NonSpecific-Binding (LNB). Immobilization was performed using amine coupling. The instrument has two sensor surfaces and HSA was immobilized on both surfaces. Around 110 Hz of HSA was stably immobilized on the surfaces.
In the kinetic experiment, HBS-EP+/−2 mM DTT was used as running buffer and the flow rate was 25 μl/min at 22° C. In each cycle, one polypeptide was tested against one concentration of HMGB1. […] The analyte HMGB1(reduced) was diluted in HBS-EP+2 mM DTT within a concentration range of 1.33 to 21.4 μg/ml, and the analyte HMGB1(disulfide) was diluted in HBS-EP buffer within a concentration range of 0.62 to 10 μg/ml. Both analytes were subsequently injected for 84 s over both channel A and B, where channel B was used as a blank surface for curve subtraction. Buffer injections were also made for surface subtractions. After dissociation, the surfaces were regenerated with a 30 s injection of 100 mM HCl followed by a 30 s injection of 20 mM NaOH. Data was collected by Attester Software and subsequently processed in the Evaluation Software. To calculate the kinetic parameters (ka and kd) and affinity constant (KD), the experimental data were fitted using a 1:1 or a 1:2 binding model.

HMGB3 = target: T3, HMGB3 (Homo sapiens, UniProt O15347); assay: SPR binding specificity study, HMGB3; details: analyte HMGB3; captured on HSA
T3 construct: purchased Biorbyt orb180288
T3 sequence (O15347 1-200): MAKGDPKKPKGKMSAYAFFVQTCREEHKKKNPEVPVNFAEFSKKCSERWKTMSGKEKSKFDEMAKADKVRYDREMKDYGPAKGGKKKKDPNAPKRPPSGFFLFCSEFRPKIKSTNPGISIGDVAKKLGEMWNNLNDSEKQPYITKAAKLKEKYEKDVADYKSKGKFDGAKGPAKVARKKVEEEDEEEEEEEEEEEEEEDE
Method: as §1, with “All curves were fitted to a kinetic 1:1 Langmuir model in the BIA Evaluation software to estimate the binding properties (ka, kd and KD).” left out

B1: ZZA4263: heterodimer ZH27/ZH32, format Z(boxB)-L2-Z(boxA)-ABD (protein)
chain: AEAKYAKEAWLAEQEIWQLPNLTEAQFQAFILKLIDDPSQSSELLSEAKKLNDSQAPKGAPGGGGSTSAEAKYAKEDWDAFWEIIWLPNLTDAQQRAFIYKLEDDPSQSSELLSEAKKLNDSQAPKASGSLAEAKEAANAELDSYGVSDFYKRLIDKAKTVEGVEALKDAILAALP
modifications: Engineered HMGB1 binding polypeptide
notes: heterodimer ZH27/ZH32, format Z(boxB)-L2-Z(boxA)-ABD
Kd (SP100 nuclear antigen): 38 nM | ka (SP100 nuclear antigen): 5700 M⁻¹ s⁻¹ | kd (SP100 nuclear antigen): 0.00022 s⁻¹ | kd HMGB1 (disulfide) (HMGB1(disulfide)): 0.00095 s⁻¹ | ka (HMGB3): 20000 M⁻¹ s⁻¹ | kd (HMGB3): 0.0013 s⁻¹
